From ChEMBL document CHEMBL1961873, “Compounds: GSK PKIS; Assays: Nanosyn kinase panel” (2012)
For some assays here: The strong results were mostly taken out for another list; the other results follow. This is a selection; strong and weak results do not stand in their true shares.

Columns and labels:
[1] = target: T1, Inhibitor of nuclear factor kappa-B kinase subunit epsilon (Homo sapiens) (UniProt Q14164); conditions: at 1 µM;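 further: reported values are averaged percent inhibition figures against human IKKε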
T1 sequence (whole entry): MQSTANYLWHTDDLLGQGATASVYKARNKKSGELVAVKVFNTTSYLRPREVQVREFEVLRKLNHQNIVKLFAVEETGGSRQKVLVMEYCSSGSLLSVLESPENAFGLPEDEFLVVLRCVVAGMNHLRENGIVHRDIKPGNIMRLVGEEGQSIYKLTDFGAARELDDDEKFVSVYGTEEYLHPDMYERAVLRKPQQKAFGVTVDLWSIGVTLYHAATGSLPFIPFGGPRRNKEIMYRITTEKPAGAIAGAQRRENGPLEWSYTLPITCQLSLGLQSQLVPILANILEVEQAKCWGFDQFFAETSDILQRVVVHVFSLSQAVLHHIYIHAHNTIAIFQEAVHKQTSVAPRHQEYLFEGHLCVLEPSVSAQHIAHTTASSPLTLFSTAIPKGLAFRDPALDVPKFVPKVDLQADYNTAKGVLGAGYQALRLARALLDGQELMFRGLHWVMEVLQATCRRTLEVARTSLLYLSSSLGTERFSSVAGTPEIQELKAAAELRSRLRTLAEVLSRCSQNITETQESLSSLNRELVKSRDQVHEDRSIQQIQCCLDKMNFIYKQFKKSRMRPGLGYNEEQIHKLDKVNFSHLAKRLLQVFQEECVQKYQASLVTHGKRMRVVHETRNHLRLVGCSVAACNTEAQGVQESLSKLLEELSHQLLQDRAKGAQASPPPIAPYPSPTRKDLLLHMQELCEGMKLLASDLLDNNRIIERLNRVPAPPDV

[2] = target: T2, Serine/threonine-protein kinase Nek1 (Homo sapiens) (UniProt Q96PY6); conditions: at 0.1 µM
T2 sequence (whole entry): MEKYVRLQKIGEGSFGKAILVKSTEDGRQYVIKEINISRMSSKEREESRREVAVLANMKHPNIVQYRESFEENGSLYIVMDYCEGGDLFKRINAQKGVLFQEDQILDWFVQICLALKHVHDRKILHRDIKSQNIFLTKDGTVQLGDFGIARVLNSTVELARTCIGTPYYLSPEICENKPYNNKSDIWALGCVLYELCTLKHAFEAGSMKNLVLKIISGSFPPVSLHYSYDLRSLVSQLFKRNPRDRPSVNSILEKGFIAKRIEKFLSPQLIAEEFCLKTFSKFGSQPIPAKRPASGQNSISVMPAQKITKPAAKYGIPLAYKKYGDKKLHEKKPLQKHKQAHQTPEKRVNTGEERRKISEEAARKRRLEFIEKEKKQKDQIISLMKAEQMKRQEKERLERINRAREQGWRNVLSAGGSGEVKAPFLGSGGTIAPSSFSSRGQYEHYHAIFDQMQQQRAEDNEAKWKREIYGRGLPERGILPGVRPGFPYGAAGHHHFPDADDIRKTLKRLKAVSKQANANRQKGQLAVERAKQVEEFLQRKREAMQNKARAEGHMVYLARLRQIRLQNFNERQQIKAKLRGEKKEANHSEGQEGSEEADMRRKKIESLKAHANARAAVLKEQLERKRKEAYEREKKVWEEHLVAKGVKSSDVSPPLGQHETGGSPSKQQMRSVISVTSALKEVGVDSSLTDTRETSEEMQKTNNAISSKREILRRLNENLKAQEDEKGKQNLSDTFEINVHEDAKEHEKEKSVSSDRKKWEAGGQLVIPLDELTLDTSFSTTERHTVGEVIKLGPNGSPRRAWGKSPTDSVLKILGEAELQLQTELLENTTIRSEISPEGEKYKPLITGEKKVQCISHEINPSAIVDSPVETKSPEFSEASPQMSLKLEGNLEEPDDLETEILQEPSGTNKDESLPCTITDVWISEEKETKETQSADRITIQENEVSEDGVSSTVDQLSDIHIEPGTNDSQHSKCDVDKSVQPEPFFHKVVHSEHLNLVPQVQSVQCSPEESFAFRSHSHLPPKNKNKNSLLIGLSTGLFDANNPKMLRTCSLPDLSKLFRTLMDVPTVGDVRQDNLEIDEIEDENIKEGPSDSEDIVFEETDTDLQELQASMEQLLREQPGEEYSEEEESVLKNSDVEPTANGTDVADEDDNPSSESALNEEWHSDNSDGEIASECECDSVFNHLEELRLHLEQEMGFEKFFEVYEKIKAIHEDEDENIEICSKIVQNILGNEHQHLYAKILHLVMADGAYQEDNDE

[3] = target: T2, Serine/threonine-protein kinase Nek1 (Homo sapiens); conditions: at 1 µM
[4] = target: T3, Serine/threonine-protein kinase Nek2 (Homo sapiens) (UniProt P51955); conditions: at 0.1 µM
T3 sequence (whole entry): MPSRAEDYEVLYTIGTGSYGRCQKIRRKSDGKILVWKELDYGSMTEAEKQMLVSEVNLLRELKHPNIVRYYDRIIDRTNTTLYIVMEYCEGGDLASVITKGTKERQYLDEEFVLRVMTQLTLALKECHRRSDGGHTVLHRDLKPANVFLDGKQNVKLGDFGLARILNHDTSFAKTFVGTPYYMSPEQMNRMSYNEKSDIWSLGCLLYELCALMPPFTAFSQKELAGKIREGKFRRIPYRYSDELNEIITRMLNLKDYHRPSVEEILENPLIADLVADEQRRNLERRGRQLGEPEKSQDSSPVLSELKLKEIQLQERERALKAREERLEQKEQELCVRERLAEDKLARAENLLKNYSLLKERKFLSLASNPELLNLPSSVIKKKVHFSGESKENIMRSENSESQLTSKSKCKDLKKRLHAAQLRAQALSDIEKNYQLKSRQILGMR

[5] = target: T3, Serine/threonine-protein kinase Nek2 (Homo sapiens); conditions: at 1 µM
[6] = target: T4, Serine/threonine-protein kinase Nek6 (Homo sapiens) (UniProt Q9HC98); conditions: at 0.1 µM
T4 sequence (whole entry): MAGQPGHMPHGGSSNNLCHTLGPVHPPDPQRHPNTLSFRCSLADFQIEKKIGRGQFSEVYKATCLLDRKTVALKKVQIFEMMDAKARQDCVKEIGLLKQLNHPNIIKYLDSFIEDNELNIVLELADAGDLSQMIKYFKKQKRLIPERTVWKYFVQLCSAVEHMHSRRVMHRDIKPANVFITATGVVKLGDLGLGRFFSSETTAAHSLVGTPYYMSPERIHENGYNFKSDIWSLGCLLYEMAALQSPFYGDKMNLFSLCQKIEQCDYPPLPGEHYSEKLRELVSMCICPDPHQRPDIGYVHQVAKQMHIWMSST

[7] = target: T4, Serine/threonine-protein kinase Nek6 (Homo sapiens); conditions: at 1 µM
[8] = target: Serine/threonine-protein kinase Nek7 (Homo sapiens) (UniProt Q8TDX7); conditions: at 0.1 µM
[9] = target: Serine/threonine-protein kinase Nek7 (Homo sapiens) (UniProt Q8TDX7); conditions: at 1 µM
[10] = target: T5, Serine/threonine-protein kinase Nek9 (Homo sapiens) (UniProt Q8TD19); conditions: at 0.1 µM
T5 sequence (whole entry): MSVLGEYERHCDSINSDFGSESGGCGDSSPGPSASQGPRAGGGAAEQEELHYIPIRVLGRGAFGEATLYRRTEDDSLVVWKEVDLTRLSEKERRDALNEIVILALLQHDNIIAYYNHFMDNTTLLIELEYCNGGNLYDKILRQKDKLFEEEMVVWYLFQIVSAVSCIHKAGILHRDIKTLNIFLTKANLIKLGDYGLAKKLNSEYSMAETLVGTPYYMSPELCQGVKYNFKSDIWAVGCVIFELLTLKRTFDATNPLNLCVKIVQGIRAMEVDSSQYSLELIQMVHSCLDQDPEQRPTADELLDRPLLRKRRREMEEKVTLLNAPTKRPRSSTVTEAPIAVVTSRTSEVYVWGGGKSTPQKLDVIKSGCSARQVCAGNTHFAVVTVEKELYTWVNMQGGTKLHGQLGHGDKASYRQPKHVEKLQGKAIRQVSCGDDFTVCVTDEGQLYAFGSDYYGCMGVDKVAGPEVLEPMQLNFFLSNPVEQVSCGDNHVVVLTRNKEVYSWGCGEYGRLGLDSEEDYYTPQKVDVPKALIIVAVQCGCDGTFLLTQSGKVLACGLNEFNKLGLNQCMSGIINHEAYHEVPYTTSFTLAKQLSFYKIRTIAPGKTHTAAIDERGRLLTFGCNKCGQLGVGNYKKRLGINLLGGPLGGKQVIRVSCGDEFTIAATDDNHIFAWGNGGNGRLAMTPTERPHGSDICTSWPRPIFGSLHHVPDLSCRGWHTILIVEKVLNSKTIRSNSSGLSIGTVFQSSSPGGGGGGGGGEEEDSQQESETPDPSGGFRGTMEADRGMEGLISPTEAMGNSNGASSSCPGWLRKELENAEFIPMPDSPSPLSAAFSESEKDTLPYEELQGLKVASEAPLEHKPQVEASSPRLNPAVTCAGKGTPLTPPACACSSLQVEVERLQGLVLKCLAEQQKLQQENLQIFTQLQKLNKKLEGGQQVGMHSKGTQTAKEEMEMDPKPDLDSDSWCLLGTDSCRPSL

[11] = target: T5, Serine/threonine-protein kinase Nek9 (Homo sapiens); conditions: at 1 µM
[12] = target: Serine/threonine-protein kinase PLK1 (Homo sapiens) (UniProt P53350); conditions: at 0.1 µM
[13] = target: Serine/threonine-protein kinase PLK1 (Homo sapiens) (UniProt P53350); conditions: at 1 µM
[14] = target: T6, Dual specificity protein kinase TTK (Homo sapiens) (UniProt P33981); conditions: at 0.1 µM
T6 sequence (whole entry): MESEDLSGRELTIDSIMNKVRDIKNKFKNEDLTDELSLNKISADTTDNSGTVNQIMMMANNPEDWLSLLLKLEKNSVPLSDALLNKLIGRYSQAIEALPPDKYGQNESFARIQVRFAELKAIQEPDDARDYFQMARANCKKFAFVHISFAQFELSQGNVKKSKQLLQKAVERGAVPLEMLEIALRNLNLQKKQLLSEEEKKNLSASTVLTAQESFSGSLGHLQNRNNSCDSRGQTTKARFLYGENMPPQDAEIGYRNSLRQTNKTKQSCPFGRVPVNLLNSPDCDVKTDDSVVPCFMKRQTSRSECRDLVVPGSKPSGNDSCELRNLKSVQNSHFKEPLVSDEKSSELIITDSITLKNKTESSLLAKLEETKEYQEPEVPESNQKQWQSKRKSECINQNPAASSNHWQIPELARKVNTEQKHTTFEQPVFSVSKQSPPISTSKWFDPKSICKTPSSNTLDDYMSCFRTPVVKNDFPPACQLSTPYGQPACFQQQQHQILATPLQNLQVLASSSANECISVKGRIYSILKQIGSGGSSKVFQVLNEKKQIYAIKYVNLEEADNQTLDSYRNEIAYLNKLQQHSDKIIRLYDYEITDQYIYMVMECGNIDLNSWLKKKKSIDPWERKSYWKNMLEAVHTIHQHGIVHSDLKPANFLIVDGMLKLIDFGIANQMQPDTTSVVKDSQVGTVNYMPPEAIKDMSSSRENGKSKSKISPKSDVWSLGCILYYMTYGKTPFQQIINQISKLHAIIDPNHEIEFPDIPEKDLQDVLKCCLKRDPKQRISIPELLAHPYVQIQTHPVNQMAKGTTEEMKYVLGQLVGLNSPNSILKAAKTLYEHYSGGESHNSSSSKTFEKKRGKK

[15] = tested on: T7, Receptor-type tyrosine-protein kinase FLT3 (Homo sapiens), P36888 [D835Y]; conditions: at 1 µM
T7 sequence (whole entry): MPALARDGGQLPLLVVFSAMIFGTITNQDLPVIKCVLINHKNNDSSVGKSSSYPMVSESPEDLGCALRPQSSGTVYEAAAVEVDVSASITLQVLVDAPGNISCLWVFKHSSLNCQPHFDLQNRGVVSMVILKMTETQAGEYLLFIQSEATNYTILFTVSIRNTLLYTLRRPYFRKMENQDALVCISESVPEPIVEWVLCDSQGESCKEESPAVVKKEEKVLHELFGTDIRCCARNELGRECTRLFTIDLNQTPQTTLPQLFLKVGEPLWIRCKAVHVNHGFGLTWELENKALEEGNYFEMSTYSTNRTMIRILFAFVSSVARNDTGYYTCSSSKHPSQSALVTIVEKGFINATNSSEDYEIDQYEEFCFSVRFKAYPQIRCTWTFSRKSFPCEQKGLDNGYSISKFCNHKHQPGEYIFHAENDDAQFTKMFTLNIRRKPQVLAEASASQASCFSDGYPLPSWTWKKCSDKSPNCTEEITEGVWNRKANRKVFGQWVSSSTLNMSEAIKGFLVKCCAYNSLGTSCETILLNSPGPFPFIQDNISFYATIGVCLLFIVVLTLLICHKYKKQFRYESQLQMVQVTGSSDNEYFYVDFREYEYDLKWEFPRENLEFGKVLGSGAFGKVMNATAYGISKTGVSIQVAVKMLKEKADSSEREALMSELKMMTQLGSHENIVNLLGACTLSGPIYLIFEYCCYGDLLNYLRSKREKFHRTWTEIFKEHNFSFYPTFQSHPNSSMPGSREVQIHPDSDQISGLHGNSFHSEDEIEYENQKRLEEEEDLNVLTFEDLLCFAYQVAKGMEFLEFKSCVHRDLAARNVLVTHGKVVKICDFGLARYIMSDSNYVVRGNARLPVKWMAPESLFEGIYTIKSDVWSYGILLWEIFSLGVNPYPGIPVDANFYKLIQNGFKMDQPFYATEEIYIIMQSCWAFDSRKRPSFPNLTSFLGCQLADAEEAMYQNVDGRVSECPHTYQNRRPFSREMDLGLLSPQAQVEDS

[16] = target: Vascular endothelial growth factor receptor 3 (Homo sapiens) (UniProt P35916); conditions: at 0.1 µM
[17] = target: Vascular endothelial growth factor receptor 3 (Homo sapiens) (UniProt P35916); conditions: at 1 µM
[18] = target: Macrophage colony-stimulating factor 1 receptor (Homo sapiens) (UniProt P07333); conditions: at 0.1 µM
[19] = target: Macrophage colony-stimulating factor 1 receptor (Homo sapiens) (UniProt P07333); conditions: at 1 µM
[20] = target: Tyrosine-protein kinase Fyn (Homo sapiens) (UniProt P06241); conditions: at 0.1 µM
Sequence of UniProt P06241 (P06241 whole entry, looked up): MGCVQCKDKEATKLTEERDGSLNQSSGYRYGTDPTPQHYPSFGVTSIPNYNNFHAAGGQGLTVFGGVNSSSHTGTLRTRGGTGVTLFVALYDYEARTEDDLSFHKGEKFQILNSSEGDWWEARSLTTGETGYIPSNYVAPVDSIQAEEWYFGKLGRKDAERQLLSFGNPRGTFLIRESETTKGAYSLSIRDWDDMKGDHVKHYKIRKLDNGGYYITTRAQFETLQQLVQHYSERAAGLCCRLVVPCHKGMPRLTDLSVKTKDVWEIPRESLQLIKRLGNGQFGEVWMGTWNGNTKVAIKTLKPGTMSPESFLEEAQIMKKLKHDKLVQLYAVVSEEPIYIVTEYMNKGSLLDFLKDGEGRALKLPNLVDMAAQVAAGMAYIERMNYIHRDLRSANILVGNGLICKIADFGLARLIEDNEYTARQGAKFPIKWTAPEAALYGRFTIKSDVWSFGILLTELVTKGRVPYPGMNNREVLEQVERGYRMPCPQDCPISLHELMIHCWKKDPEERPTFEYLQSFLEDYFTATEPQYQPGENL

Sequence of UniProt P07333 (P07333 whole entry): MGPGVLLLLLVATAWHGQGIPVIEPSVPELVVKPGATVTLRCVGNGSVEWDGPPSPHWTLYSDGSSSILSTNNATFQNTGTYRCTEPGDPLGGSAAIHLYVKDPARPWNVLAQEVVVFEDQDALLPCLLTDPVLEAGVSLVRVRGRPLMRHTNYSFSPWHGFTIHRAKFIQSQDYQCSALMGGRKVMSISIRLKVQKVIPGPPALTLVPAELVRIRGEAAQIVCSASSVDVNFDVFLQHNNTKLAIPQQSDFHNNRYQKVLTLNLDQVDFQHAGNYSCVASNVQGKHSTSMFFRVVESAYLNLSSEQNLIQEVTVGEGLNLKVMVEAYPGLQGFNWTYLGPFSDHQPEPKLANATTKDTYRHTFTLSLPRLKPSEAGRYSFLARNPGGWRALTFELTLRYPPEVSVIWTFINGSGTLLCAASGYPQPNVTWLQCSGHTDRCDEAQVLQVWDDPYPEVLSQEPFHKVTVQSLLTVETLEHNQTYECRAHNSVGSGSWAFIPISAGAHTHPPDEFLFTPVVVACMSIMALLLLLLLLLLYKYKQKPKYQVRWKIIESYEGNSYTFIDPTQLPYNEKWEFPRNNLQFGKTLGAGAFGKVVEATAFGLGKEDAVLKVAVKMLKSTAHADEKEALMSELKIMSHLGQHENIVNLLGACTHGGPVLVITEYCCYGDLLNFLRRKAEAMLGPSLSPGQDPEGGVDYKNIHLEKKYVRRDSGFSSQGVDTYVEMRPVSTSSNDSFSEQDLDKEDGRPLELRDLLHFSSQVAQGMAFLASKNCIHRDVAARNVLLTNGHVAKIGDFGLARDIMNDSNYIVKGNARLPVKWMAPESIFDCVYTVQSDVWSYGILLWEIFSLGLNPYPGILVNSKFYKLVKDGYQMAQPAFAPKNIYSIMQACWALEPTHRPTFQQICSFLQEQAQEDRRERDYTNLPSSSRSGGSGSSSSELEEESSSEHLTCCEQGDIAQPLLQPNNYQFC
Sequence of UniProt Q8TDX7 (Q8TDX7 whole entry, looked up): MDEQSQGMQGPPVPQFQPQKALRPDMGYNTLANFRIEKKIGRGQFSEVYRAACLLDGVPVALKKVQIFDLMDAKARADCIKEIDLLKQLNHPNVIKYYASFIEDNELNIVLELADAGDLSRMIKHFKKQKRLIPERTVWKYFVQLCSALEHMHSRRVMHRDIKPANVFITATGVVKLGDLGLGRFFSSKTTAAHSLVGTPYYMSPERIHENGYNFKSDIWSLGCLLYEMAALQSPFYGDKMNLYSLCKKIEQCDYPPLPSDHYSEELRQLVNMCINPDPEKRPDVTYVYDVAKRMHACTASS
Sequence of UniProt P53350 (P53350 whole entry): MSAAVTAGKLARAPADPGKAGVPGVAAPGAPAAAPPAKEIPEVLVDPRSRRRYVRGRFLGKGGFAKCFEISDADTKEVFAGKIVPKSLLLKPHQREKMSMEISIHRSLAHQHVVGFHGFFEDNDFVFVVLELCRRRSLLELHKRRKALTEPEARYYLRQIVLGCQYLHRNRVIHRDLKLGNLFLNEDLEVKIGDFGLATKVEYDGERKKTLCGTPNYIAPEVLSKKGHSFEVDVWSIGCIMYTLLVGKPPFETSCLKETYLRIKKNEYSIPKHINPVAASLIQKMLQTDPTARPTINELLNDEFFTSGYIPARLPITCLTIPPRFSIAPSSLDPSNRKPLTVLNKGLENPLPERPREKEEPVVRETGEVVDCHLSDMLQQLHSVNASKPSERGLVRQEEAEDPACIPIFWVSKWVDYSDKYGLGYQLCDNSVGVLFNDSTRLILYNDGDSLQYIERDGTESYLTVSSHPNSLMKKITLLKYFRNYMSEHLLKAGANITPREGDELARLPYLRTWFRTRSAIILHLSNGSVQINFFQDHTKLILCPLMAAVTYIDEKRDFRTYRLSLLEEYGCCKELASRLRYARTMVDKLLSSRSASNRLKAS
Sequence of UniProt P35916 (P35916 whole entry): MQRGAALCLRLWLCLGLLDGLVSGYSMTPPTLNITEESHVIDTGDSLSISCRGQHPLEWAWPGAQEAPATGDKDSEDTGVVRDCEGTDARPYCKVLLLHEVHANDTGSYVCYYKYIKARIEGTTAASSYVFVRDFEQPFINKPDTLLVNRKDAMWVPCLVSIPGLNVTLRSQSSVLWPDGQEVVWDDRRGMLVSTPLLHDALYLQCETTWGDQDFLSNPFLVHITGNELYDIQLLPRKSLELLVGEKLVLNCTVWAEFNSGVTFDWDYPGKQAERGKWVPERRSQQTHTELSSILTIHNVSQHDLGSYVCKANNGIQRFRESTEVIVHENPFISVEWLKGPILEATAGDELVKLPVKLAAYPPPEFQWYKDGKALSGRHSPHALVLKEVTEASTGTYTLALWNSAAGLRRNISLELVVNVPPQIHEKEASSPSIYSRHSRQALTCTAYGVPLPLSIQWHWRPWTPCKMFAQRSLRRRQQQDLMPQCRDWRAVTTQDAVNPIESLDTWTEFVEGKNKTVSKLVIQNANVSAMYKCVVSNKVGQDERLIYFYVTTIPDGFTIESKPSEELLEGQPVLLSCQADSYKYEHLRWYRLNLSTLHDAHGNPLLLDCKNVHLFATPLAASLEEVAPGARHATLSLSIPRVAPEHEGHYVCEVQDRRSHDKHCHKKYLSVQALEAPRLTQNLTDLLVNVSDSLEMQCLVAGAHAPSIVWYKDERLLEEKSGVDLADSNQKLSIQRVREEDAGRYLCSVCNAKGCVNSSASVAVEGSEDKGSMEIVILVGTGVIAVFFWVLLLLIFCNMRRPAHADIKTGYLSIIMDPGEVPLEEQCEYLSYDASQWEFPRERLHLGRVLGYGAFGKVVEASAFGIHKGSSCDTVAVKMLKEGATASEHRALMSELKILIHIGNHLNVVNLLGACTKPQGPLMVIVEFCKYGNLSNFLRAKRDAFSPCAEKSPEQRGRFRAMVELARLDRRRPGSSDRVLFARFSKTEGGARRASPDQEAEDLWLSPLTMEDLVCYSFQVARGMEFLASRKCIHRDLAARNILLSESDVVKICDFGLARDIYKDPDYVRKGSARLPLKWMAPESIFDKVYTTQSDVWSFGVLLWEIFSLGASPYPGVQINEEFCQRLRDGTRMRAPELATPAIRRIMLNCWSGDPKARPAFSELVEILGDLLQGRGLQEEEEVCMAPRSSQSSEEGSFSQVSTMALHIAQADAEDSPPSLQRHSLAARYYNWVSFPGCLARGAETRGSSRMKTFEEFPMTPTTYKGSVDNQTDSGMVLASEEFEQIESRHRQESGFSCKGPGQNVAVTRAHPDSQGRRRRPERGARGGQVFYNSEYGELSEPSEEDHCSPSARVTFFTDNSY

## Cc1cccc(Oc2nccc(-c3c(-c4ccc(F)cc4)ncn3C3CCNCC3)n2)c1C
[1]
  inhibition: 5.24%
[2]
  inhibition: 2.12%
[3]
  inhibition: 0.4%
[4]
  inhibition: 4.85%
[5]
  inhibition: 5.5%
[6]
  inhibition: 0.24%
[7]
  inhibition: 3.94%
[8]
  inhibition: 2.84%
[9]
  inhibition: 5.48%
[10]
  inhibition: 5.19%
[11]
  inhibition: 5.85%
[12]
  inhibition: 3.27%
[13]
  inhibition: 3.1%
[14]
  inhibition: 6.84%
[15]
  inhibition: 2.26%
[16]
  inhibition: 0.75%
[17]
  inhibition: 2.35%
[18]
  inhibition: -3.93%
[19]
  inhibition: 3.13%
[20]
  inhibition: -0.04%
